Broadly, the EC50 is the midpoint of the concentration-response curve.

The results in this text go back to US20220348665A1 (ABL BIO, published 2022).

For test [1], the target named is T1, human IGF1R, endogenous, on the surface of breast cancer cell lines (MCF-7, JIMT-1, BT474) (human, UniProt P08069 31-1367).
T1 construct: also called endogenous IGF1R on the cell surface; MCF-7 cell line
Nature of the test: FACS on MCF-7 cells, antibody 10 ug/mL (2nd Ab only 2.86, not treated 1.88).

For test [2], the target named is T2, human IGF1R extracellular domain, recombinant, His tag at C-terminus (human, UniProt P08069 31-932).
T2 construct: also called human IGF1R ECD; ECD of IGF1R
Nature of the test: ELISA on ECD of IGF1R, bispecific form.

Test [3] addresses T2, human IGF1R extracellular domain, …. Nature of the test: category of binding affinity; basis not stated, follows the ELISA of Table 18. (In general: In an ELISA, binding on a coated surface is turned into a signal by an enzyme label.)
For test [4] the target is unchanged. Nature of the test: ELISA, human IGF1R ECD coated, against VH5 wild type.
The target of test [5] is T1, human IGF1R, endogenous, on the surface …. Nature of the test: FACS on MCF-7 cells (2ndary Ab only MFI 2.29).
Test [6] has as its target T2, human IGF1R extracellular domain, …. The test is described as follows: ELISA, human IGF1R ECD (Sino Biological) coated, anti-human Fc-HRP.
Test [7] shares this target. The test is described as follows: ELISA on human IGF1R protein, against VH5 WT.
Test [8] shares this target. The test is described as follows: ELISA on human IGF1R protein.
Test [9] shares this target. The test is described as follows: ELISA on human IGF1R protein, against F06 WT.
The target is the same in test [10]. The test is described as follows: ELISA, human IGF1R ECD coated, against F06 wild type.
Test [11] shares this target. Nature of the test: ELISA, human IGF1R ECD coated, against VH16 wild type.
For test [12] the target is unchanged. The test is described as follows: ELISA on human IGF1R protein, against VH16 WT.
The target of test [13] is alpha-synuclein aggregates (human alpha-synuclein, fibril) (human, UniProt P37840). The test is described as follows: ELISA on coated alpha-synuclein aggregates, antibody 5-fold dilutions from 400 nM, anti-human Fc-HRP; value is C of the 4-P fit table under the plot.

B1: Hu11F11(ver.2)-VH2 (bivalent bispecific antibody) (bispecific antibody)
heavy: EVQLVESGGGLVQPGGSLRLSCATSGFTFSDFYMEWVRQPPGKRLEWIAASRNKANDYTTEYSASVKGRFTVSRDDSKSSLYLQMNSLRAEDTAIYYCARDAHGKPFAYWGQGTTVTVSS[human IgG1 constant region cut from this listing]GGGGSGGGGSGGGGSQSVLTQPPSASGTPGQRVTISCTGSSSNIGSNDVSWYQQLPGTAPKLLIYANSNRPSGVSDRFSGSKSGTSASLAISGLRSEDEADYYCGAWDDSLNGYVFGCGTKLTVLGGGGSGGGGSGGGGSGGGGSEVQLLESGGGLVQPGGSLRLSCAASGFTFSSYAMSWVRQAPGKCLEWVSAISGSNGNTYYADSVKGRFTISRDNSKNTLYLQMNSLRAEDTAVYYCAKGVLTTLANWFDYWGQGTLVTVSS
light: DIVMTQSPSSLAVSLGERVTMS[about 80 residues cut from this listing][about 120 residues cut from this listing]
notes: also called hu11F11x1564_VH2
For the molecule B1, the “GeoMean, Internalization at 37° C.” value in test [1] worked out at 3.19. Also, in test [2], the concentration for a half-maximal effect (EC50) amounted to 135 nM. In addition, in test [3], the “fold decrease of binding affinity (against parental 1564 clone)” value (“fold decrease of binding affinity” for short) was no less than 50 fold.

B2: hu11F11(ver.2)-VH5(de2)(StoP) bivalent (bispecific antibody) (bispecific antibody, human IgG1, kappa)
heavy: EVQLVESGGGLVQPGGSLRLSCATSGFTFSDFYMEWVRQPPGKRLEWIAASRNKANDYTTEYSASVKGRFTVSRDDSKSSLYLQMNSLRAEDTAIYYCARDAHGKPFAYWGQGTTVTVSS[human IgG1 constant region cut from this listing]GGGGSGGGGSGGGGSQSVLTQPPSASGTPGQRVTISCTGSSSNIGSNDVSWYQQLPGTAPKLLIYANVNRPSGVPDRFSGSKSGTSASLAISGLRSEDEADYYCGAWDDSLNAYVFGCGTKLTVLGGGGSGGGGSGGGGSGGGGSEVQLLESGGGLVQPGGSLRLSCAASGFTFSSYDMSWVRQAPGKCLEWVSAISGDNASTYYADSVKGRFTISRDNSKNTLYLQMNSLRAEDTAVYYCAKGVLTTLMNWFDSWGQGTLVTVSS
light: DIVMTQSPSSLAVSLGERVTMS[about 80 residues cut from this listing][about 120 residues cut from this listing]
notes: also called hu11f11-VH5(de2)(StoP); VH5 bi (de2)(StoP)
Take B2: the “% WT” value in test [4] and in test [7] was 223% in each case. The same molecule registered an MFI in test [5] of 8.03. For the same molecule, the concentration giving a half-maximal response (EC50) in test [6] and in test [8] was 0.0561 nM each time.

B3: hu11F11(ver.2)-F06(de2)(StoP) monovalent (bispecific antibody) (bispecific antibody, human IgG1, kappa)
heavy 1: EVQLVESGGGLVQPGGSLRLSCATSGFTFSDFYMEWVRQPPGKRLEWIAASRNKANDYTTEYSASVKGRFTVSRDDSKSSLYLQMNSLRAEDTAIYYCARDAHGKPFAYWGQGTTVTVSSASTKGPSVFPLAPSSKSTSGGTAALGCLVKDYFPEPVTVSWNSGALTSGVHTFPAVLQSSGLYSLSSVVTVPSSSLGTQTYICNVNHKPSNTKVDKKV[human IgG1 Fc with changes cut from this listing]GGGGSGGGGSGGGGSQSVLTQPPSASGTPGQRVTISCTGSSSNIGSNDVSWYQQLPGTAPKLLIYANVNRPSGVPDRFSGSKSGTSASLAISGLRSEDEADYYCGTWAGSLNAYVFGCGTKLTVLGGGGSGGGGSGGGGSGGGGSEVQLLESGGGLVQPGGSLRLSCAASGFTFSSYDMSWVRQAPGKCLEWVSAISYDNANTYYADSVKGRFTISRDNSKNTLYLQMNSLRAEDTAVYYCAKGVLTTLMNWFDYWGQGTLVTVSS
heavy 2: EVQLVESGGGLVQPGGSLRLSCATSGFTFSDFYMEWVRQPPGKRLEWIAASRNKANDYTTEYSASVKGRFTVSRDDSKSSLYLQMNSLRAEDTAIYYCARDAHGKPFAYWGQGTTVTVSS[human IgG1 constant region with changes cut from this listing]
light: DIVMTQSPSSLAVSLGERVTMS[about 80 residues cut from this listing][about 120 residues cut from this listing]
notes: also called hu11f11-F06(de2)(StoP); F06 mono (de2)(StoP)
In turn, B3 came in with an MFI in test [5] of 8.61. For the same molecule, the half-maximal effective concentration (EC50) in test [6] and in test [8] was 0.0575 nM each time. The “% WT” value in test [9] and in test [10] was 195% throughout.

B4: hu11F11(ver.2)-VH16(de2)(StoP) bivalent (bispecific antibody) (bispecific antibody, human IgG1, kappa)
heavy: EVQLVESGGGLVQPGGSLRLSCATSGFTFSDFYMEWVRQPPGKRLEWIAASRNKANDYTTEYSASVKGRFTVSRDDSKSSLYLQMNSLRAEDTAIYYCARDAHGKPFAYWGQGTTVTVSS[human IgG1 constant region cut from this listing]GGGGSGGGGSGGGGSQSVLTQPPSASGTPGQRVTISCTGSSSNIGSNDVSWYQQLPGTAPKLLIYANVNRPSGVPDRFSGSKSGTSASLAISGLRSEDEADYYCGAWDDSLNAYVFGCGTKLTVLGGGGSGGGGSGGGGSGGGGSEVQLLESGGGLVQPGGSLRLSCAASGFTFSSYDMSWVRQAPGKCLEWVSAISGSNANTYYADSVKGRFTISRDNSKNTLYLQMNSLRAEDTAVYYCAKGVLTTLMNWFDYWGQGTLVTVSS
light: DIVMTQSPSSLAVSLGERVTMS[about 80 residues cut from this listing][about 120 residues cut from this listing]
notes: also called hu11F11-VH16(de2)(StoP); VH16 bi (de2)(StoP)
Turning to B4, the “% WT” value in [11] and in test [12] was 117% each time. Besides, the MFI in [5] was 6.42. The EC50 in test [6] and in test [8] was 0.122 nM each time.

B5: Hu11F11(ver.2)-VH32 (bivalent bispecific antibody) (bispecific antibody)
heavy: EVQLVESGGGLVQPGGSLRLSCATSGFTFSDFYMEWVRQPPGKRLEWIAASRNKANDYTTEYSASVKGRFTVSRDDSKSSLYLQMNSLRAEDTAIYYCARDAHGKPFAYWGQGTTVTVSS[human IgG1 constant region cut from this listing]GGGGSGGGGSGGGGSQSVLTQPPSASGTPGQRVTISCTGSSSNIGSNDVSWYQQLPGTAPKLLIYANSNRPSGVSDRFSGSKSGTSASLAISGLRSEDEADYYCGAWDDSLNGYVFGCGTKLTVLGGGGSGGGGSGGGGSGGGGSEVQLLESGGGLVQPGGSLRLSCAASGFTFSSYAMSWVRQAPGKCLEWVSAISYDNGNTYYADSVKGRFTISRDNSKNTLYLQMNSLRAEDTAVYYCAKGVLTTLANWFDYWGQGTLVTVSS
light: DIVMTQSPSSLAVSLGERVTMS[about 80 residues cut from this listing][about 120 residues cut from this listing]
notes: also called hu11F11x1564_VH32
In the case of B5, the “GeoMean, Internalization at 37° C.” value in test [1] worked out at 3.24. Further, the EC50 in [2] was determined as 121 nM. In addition, the “fold decrease of binding affinity” value in [3] is no less than 50 fold.

B6: Hu11F11(ver.2)-VH7 (bivalent bispecific antibody) (bispecific antibody)
heavy: EVQLVESGGGLVQPGGSLRLSCATSGFTFSDFYMEWVRQPPGKRLEWIAASRNKANDYTTEYSASVKGRFTVSRDDSKSSLYLQMNSLRAEDTAIYYCARDAHGKPFAYWGQGTTVTVSS[human IgG1 constant region cut from this listing]GGGGSGGGGSGGGGSQSVLTQPPSASGTPGQRVTISCTGSSSNIGSNDVSWYQQLPGTAPKLLIYANSNRPSGVSDRFSGSKSGTSASLAISGLRSEDEADYYCGAWDDSLNGYVFGCGTKLTVLGGGGSGGGGSGGGGSGGGGSEVQLLESGGGLVQPGGSLRLSCAASGFTFSSYAMSWVRQAPGKCLEWVSAISYDNGSTYYADSVKGRFTISRDNSKNTLYLQMNSLRAEDTAVYYCAKGVLTTLMNWFDYWGQGTLVTVSS
light: DIVMTQSPSSLAVSLGERVTMS[about 80 residues cut from this listing][about 120 residues cut from this listing]
notes: also called hu11F11x1564_VH7
As for B6, the “GeoMean, Internalization at 37° C.” value in test [1] came out at 3.84. Besides, the 50% effective concentration (EC50) in [2] turned out to be 402 nM. Also, the “fold decrease of binding affinity” value in test [3] is no less than 50 fold.

B7: hu11F11-1564 (ver.3) mono (bispecific antibody)
heavy 1: EVQLVESGGGLVQPGGSLRLSCATSGFTFSDFYMEWVRQPPGKRLEWIAASRNKANDYTTEYSASVKGRFTISRDTSKSSLYLQMNSLRAEDTAIYYCARDAHGKPFAYWGQGTTVTVSSASTKGPSVFPLAPSSKSTSGGTAALGCLVKDYFPEPVTVSWNSGALTSGVHTFPAVLQSSGLYSLSSVVTVPSSSLGTQTYICNVNHKPSNTKVDKKV[human IgG1 Fc with changes cut from this listing]GGGGSGGGGSGGGGSQSVLTQPPSASGTPGQRVTISCTGSSSNIGSNDVSWYQQLPGTAPKLLIYANSNRPSGVSDRFSGSKSGTSASLAISGLRSEDEADYYCGAWDDSLNGYVFGCGTKLTVLGGGGSGGGGSGGGGSGGGGSEVQLLESGGGLVQPGGSLRLSCAASGFTFSSYDMSWVRQAPGKCLEWVSAISYDNGNTYYADSVKGRFTISRDNSKNTLYLQMNSLRAEDTAVYYCAKGVLTTLMNWFDYWGQGTLVTVSS
heavy 2: EVQLVESGGGLVQPGGSLRLSCATSGFTFSDFYMEWVRQPPGKRLEWIAASRNKANDYTTEYSASVKGRFTISRDTSKSSLYLQMNSLRAEDTAIYYCARDAHGKPFAYWGQGTTVTVSS[human IgG1 constant region with changes cut from this listing]
light: DIVMTQSPSSLAVSLGERVTMS[about 80 residues cut from this listing][about 120 residues cut from this listing]
notes: monovalent form, marked 'mono' on the sheet
B7 had an EC50 in test [13] of 0.559 nM.
